Source: PubChem BioAssay AID1508624 (National Center for Advancing Translational Sciences (NCATS), 2021)
About 120 (0.25%) of roughly 48,000 compounds were called active. Roughly 4% stayed inconclusive and do not appear here. Calls follow the shape of the dose curve; as a rule, active = well fitted activation curve with a large enough effect; inconclusive = small, poorly fitted or top-dose-only effect, or another doubt; inactive = no such curve, though single readings can be large or run the other way. The list shows a part of the results.

Assay: Primary qHTS for Identification of Small Molecule Activators of Huntingtin-Antisense Promoter Activity; also: nearly all actives have a fitted effect of over 55% in size
Conditions: HEK293 HTT-AS promoter firefly luciferase reporter (activity 0% = vehicle and -100% = no light), 24 h; series mostly up to 57.5 µM; activity change, positive = activation: at the top concentration
Outline: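 HEK293 luciferase promoter-reporter cells (2,500/well) plated 24 h, then compounds added at up to 57.5 uM final for 24 h at 37 °C. Firefly luminescence by Dual-Glo, normalized to vehicle (0%) and zero RLU (-100%).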

Activity change, positive = activation, inactive:
COc1ccc(NC(=O)CCS(=O)(=O)c2ccc3c(c2)n(C)c(=O)c(=O)n3C)cc1Cl -3.1%
O=C(CCC1N=C2c3ccccc3N=C(SCc3cccc(Cl)c3)N2C1=O)NCCc1ccccc1 (stereo not given) -1.16%
COc1ccc(Br)cc1CNC(=O)CSc1n[nH]c(-c2ccccc2)n1 -38.3%
CCC(C)[C@H](N)c1nnc(SCc2ccc(Cl)c(Cl)c2)o1 (stereo not given in full) -15.1%
COC(=O)c1ccc(OCC2c3cc(OC)c(OC)cc3CCN2C(=O)c2cccc(C)c2)cc1 (stereo not given) -36.9%
COc1cccc(N2CCN(C(=O)CN3CCSc4ccc(S(=O)(=O)N(C)C)cc43)CC2)c1 -17.6%
COc1ccc(NC(=O)C2CCN(C3=NS(=O)(=O)C(c4ccc(C)c(C)c4)=C3C)CC2)cc1OC -9.86%
COc1ccc(CNC(=O)CCS(=O)(=O)c2cc(Br)cc3c2N(C(=O)C2CC2)CC3)cc1 0.702%
COc1cccc(CNC(=O)Cn2c(=O)n3nc(-c4cccc(C)c4)nc3c3ccccc32)c1 25.1%
CCCCN(Cc1ccccc1)S(=O)(=O)c1ccc2c(c1)CCN2C(=O)C1CCC1 -6.4%
O=C(Cn1nc(Cc2cccnc2)c2ccccc2c1=O)N1CCN(c2ccc(F)cc2)CC1 -18.9%
CCCSCCCNC(=O)C1CCCN(C(=O)c2cnn(-c3ccccc3)c2-n2cccc2)C1 (stereo not given) -31.8%
COc1ccc(Nc2ncnc3onc(C)c23)cc1Cl -14.2%
Cc1ccc(/C=C/c2onc(C)c2S(=O)(=O)N2CCC(C(=O)NCc3ccco3)CC2)cc1 -16.3%
Cc1ccc(CCNC(=O)c2ccc3c(c2)N(Cc2cc(C)ccc2C)C(=O)c2ccccc2S3=O)cc1 (stereo not given) -13.7%
CCN(CC)c1ccc(NC(=O)CN2C(=O)c3cccnc3Oc3ccccc32)c(C)c1 -9.26%
CCOC(=O)c1cccc(NS(=O)(=O)c2cc(Br)cc3c2N(C(=O)C2CC2)CC3)c1 -49.1%
O=C(CCNS(=O)(=O)c1cccc2nsnc12)Nc1ccc(F)cc1 -1.28%
COc1ccc(-c2nc3cc(NC(=O)COc4ccc(F)cc4)ccc3o2)cc1 2.18%
Cc1csc2nc(-c3cccc(NC(=O)c4ccc(S(N)(=O)=O)cc4)c3)cn12 1.9%
Cc1ccc2cccc(NC(=O)c3ccc(-c4ccc(Cl)cc4Cl)o3)c2n1 18.5%
COc1ccc(OC)c(CNC(=O)c2cc(=O)[nH]c3ccc(S(=O)(=O)N4CCCCC4C)cc23)c1 (stereo not given) -15%
CCOc1ccc(-c2cc(C)n3nc(C(=O)Nc4cc(Cl)ccc4O)cc3n2)cc1 -16.3%
COc1cccc(NC(=O)Cn2c(=O)n(Cc3nc(-c4ccccc4)no3)c(=O)c3ccccc32)c1 -21.7%
CCC(=O)Nc1ccc(S(=O)(=O)NCc2cccn2Cc2cccc(C)c2)cc1 -35.9%
COc1ccccc1/C=C(\C#N)c1nc(-c2cc3ccccc3oc2=O)cs1 3.92%
COc1ccc(S(=O)(=O)NCCc2sc(-c3ccccc3)nc2C)cc1OC -7.91%
CCOC(=O)N1CCC(NC(=O)c2cnn(-c3ccccc3)c2C2CCN(C(=O)OC(C)(C)C)CC2)CC1 -6.35%
O=C(NCCC1=CCCCC1)c1ccc2c(c1)ncn2-c1cccc(Cl)c1 23.4%
CCc1ccccc1NC(=O)CSc1ncc2c(n1)-c1ccccc1N(C)S2(=O)=O 4.72%
CCN(C(=O)C(NS(=O)(=O)c1cccc2nsnc12)c1ccccc1)c1ccccc1 (stereo not given) -17%
COCCCNC(=O)CCCN1C(=O)CCn2nc(-c3cn(C)c4ccccc34)cc21 -8.55%
COc1ccc(-c2ccnc3c2c(=O)n(C)c(=O)n3C)cc1OC 6.57%
COc1ccc(OC)c(CNC(=O)CCS(=O)(=O)c2ccc3c(c2)oc(=O)n3C)c1 6.8%
Cc1ccc(NC(=O)[C@H](CSCc2ccccc2)N2Cc3ccccc3C2=O)cc1 -3.43%
Cc1cc(C)c(NC(=O)CN2C(=O)c3cccnc3Oc3ccc(Cl)cc32)c(C)c1 -12.8%
Cc1ccc(C(=O)N2c3nc(-c4ccco4)nn3C3(CCCCC3)[C@@H]3CCCC[C@@H]32)cc1 -31.8%
Cc1cc(Nc2ccc(C)c(Cl)c2)n2nc(-c3ccccc3)nc2n1 -15.4%
CC1CCN(S(=O)(=O)c2cccc(C(=O)NC3CCS(=O)(=O)C3)c2)CC1 (stereo not given) -13.2%
CCC1CN(C(=O)N2CCC(C(=O)NCc3cccs3)CC2)c2ccccc2O1 (stereo not given) -21.7%
Cc1ccc(N2C(=O)CSC23C(=O)N(CC(=O)NCCc2ccccc2)c2ccccc23)cc1 (stereo not given) -14.2%
COc1cccc(CNCc2c(C(=O)O)n(Cc3ccc(C)cc3)c3cc(C)ccc23)c1OC -26.4%
CC(=O)c1ccc(NC(=O)c2sc(-n3nc(C)c(Cc4ccc5c(c4)OCO5)c3C)nc2C)cc1 -5.6%
CCC1CCCCN1CCCNC(=O)c1ccc2c(c1)N(Cc1cccc(Cl)c1)C(=O)c1ccccc1S2(=O)=O (stereo not given) -20.5%
O=c1oc2c(CN3CCOCC3)c(O)ccc2cc1-c1ccccc1 4.42%
COc1ccc(N2CCN(C(=O)c3noc4c3CCCCC4)CC2)cc1 15.6%
O=C(NCCc1nc2ccccc2n1Cc1ccc(Cl)cc1)c1ccccc1 -37.9%
CCOC(=O)c1ccccc1NC(=O)c1sc2nc(-c3ccc(F)cc3)cn2c1C 5.14%
Cc1nnc(NC(=O)CSc2nc3c([nH]c4ccccc43)c(=O)n2-c2cccc(Cl)c2)s1 -9.15%
COc1ccc(C)cc1NC(=O)NCCn1nnc2cc(S(=O)(=O)N(C)C)ccc21 -4.12%
COc1ccc(-c2nc3ccccc3o2)cc1NC(=O)c1cc(Br)ccc1OC -4.07%
Cc1ccc(C(=O)OCc2cc(=O)n3nc(CC(C)C)sc3n2)cc1 -8.66%
COc1ccc(CCNC(=O)c2cnc3sc(N4CCCCCC4)nn3c2=O)cc1 -16.6%
CC(C(=O)O)c1ccc2c(c1)[nH]c1ccc(Cl)cc12 (stereo not given) -1.74%
Cc1cccc(N2CCN(C(=O)Cc3c(C(=O)O)c(C)cn3C)CC2C)c1 (stereo not given) -15.2%
CN(Cc1ccccc1)C(=O)c1ccc(CSc2nc3cccnc3n2Cc2ccccc2)cc1 -33.2%
COC(=O)c1c(NC(=O)COc2ccc(C(C)C)cc2)sc2c1CCCC2 0.0014%
COc1ccc(C2CC(=O)Nc3c2c(C)nn3-c2nc(C)cc(C)n2)c(OC)c1OC (stereo not given) 2.1%
COc1ccccc1CCNC(=O)C1(c2cccs2)CCOCC1 -8.15%
CCc1cccc(NC(=O)CCn2nc(C)cc2C)c1 -0.178%
